# Laboratory results: the supplement of paper PMC8285479
# Structures can show the parent of a compound that is named as a salt. ± gives the standard deviation of the averaged measurements. Whole data set: some 1,900 compounds, median “normalised cell viability (NPI; 0 = phenylarsine oxide control, 1 = DMSO control)” near 1, cut for the lowest 2% near 0.039. The list shows a part of the results.
# Tested on: NCI-H1944
# Assay: normalised cell viability (NPI; 0 = phenylarsine oxide control, 1 = DMSO control) (fraction of DMSO control); NCI-H1944 is a non-small cell lung cancer line; higher = more viable cells (less compound toxicity)
# Conditions: 6 days
# [1] = glucocorticoid arm: hydrocortisone 2.75 uM co-treatment, compound 1 µM
# [2] = glucocorticoid arm: hydrocortisone 2.75 uM co-treatment, compound 5 µM
# [3] = glucocorticoid arm: hydrocortisone 2.75 uM pre-treated 2 days and continued, compound 1 µM
# [4] = glucocorticoid arm: hydrocortisone 2.75 uM pre-treated 2 days and continued, compound 5 µM
# [5] = glucocorticoid arm: vehicle, compound 1 µM
# [6] = glucocorticoid arm: vehicle, compound 5 µM
# 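Further: CTB read-out in 384-well plates, mean of triplicate wells, normalised per plate against 1 µM phenylarsine oxide and 0.1% DMSO, compounds added 24 h after seeding.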
SMILES,normalised cell viability [1],normalised cell viability [2],normalised cell viability [3],normalised cell viability [4],normalised cell viability [5],normalised cell viability [6]
OCCOCCN1CCN(C2=Nc3ccccc3Sc3ccccc32)CC1 [Quetiapine Fumarate],0.9587 ± 0.0072,0.967 ± 0.038,0.983 ± 0.015,0.954 ± 0.033,0.9927 ± 0.0031,0.9833 ± 0.004
S=C(S)OC1CC2CC1C1CCCC21 [D-609 potassium],1.02 ± 0.01,1.03 ± 0.017,1.04 ± 0.02,1.04 ± 0.01,1.03 ± 0.011,1.03
O=[N+]([O-])c1ccc(-c2nc(-c3ccc(F)cc3)c(-c3ccncc3)[nH]2)cc1,0.976 ± 0.019,0.903 ± 0.014,0.9707 ± 0.008,0.865 ± 0.019,0.996 ± 0.004,0.962 ± 0.051
C[C@]12CCC(=O)C=C1CC[C@@H]1[C@@H]2[C@@H](O)C[C@@]2(C)[C@H]1CC[C@]2(O)C(=O)CO [Hydrocortisone],0.9983 ± 0.0029,0.986 ± 0.011,0.979 ± 0.037,1 ± 0.015,0.932 ± 0.002,0.815 ± 0.018
CNCCCC1c2ccccc2C=Cc2ccccc21 [Protriptyline hydrochloride],0.992 ± 0.0072,0.951 ± 0.012,1.01 ± 0.023,1.01 ± 0.013,0.9823 ± 0.0038,0.9793 ± 0.0061
C[N+]1(CCCCC[N+]2(C)CCCC2)CCCC1 [Pentolinium di[L(+)-tartrate]],1 ± 0.014,1.01 ± 0.025,1.005 ± 0.0081,1.04 ± 0.084,1.01,1.01 ± 0.011
O=C(Nc1ccccc1)c1cc([N+](=O)[O-])ccc1Cl,0.9997 ± 0.0093,1.04 ± 0.01,0.993 ± 0.012,0.862 ± 0.28,1.003 ± 0.0058,1.01 ± 0.01
Cn1cnc(-c2cc3nccc(Oc4ccc(NC(=S)NC(=O)Cc5ccccc5)cc4F)c3s2)c1,1.017 ± 0.0058,1.04 ± 0.035,1.013 ± 0.0058,1.04 ± 0.031,0.9993 ± 0.0011,0.9933 ± 0.0023
CCC(=O)N1CCN(c2ccc(-n3c(=O)ccc4cnc5ccc(-c6cnc7ccccc7c6)cc5c43)cc2C(F)(F)F)CC1 [Torin 1],0.4 ± 0.0087,0.383 ± 0.013,0.532 ± 0.018,0.518 ± 0.022,0.223 ± 0.023,0.286 ± 0.01
O=c1cc(N2CCOCC2)oc2c(-c3cccc4c3sc3ccccc34)cccc12,0.912 ± 0.014,0.96 ± 0.026,0.924 ± 0.022,0.962 ± 0.039,1.003 ± 0.0064,1.017 ± 0.0058
CC(C)(C(=O)O)c1ccc(C(O)CCCN2CCC(C(O)(c3ccccc3)c3ccccc3)CC2)cc1 (stereo not drawn) [Fexofenadine hydrochloride],1.006 ± 0.0069,1 ± 0.013,0.997 ± 0.013,0.99 ± 0.01,1.003 ± 0.0058,0.9967 ± 0.0035
CC(C)(C(=O)O)c1ccc(C(O)CCCN2CCC(C(O)(c3ccccc3)c3ccccc3)CC2)cc1 (stereo not drawn) [Fexofenadine HCl],1.03 ± 0.01,1.02 ± 0.021,1.037 ± 0.0058,1.05 ± 0.011,0.999 ± 0.011,0.998 ± 0.01
CC(N)=NCCCC[C@H](N)C(=O)O [L-N6-(1-Iminoethyl)lysine hydrochloride],0.985 ± 0.014,0.968 ± 0.044,0.9953 ± 0.0042,1.01 ± 0.091,0.9713 ± 0.0049,0.979 ± 0.0087
